# From the supplement of paper PMC4604168 (melanoma cell lines)
# This is one part of the list. Many values rest on one well or one pass, so single values are uncertain.
# Columns and labels:
# Test in all cases: cell count relative to DMSO control; melanoma cells; higher = more viable cells
# Details in all cases: library dose: standard library concentration; 72 h
# G361 = tested on: G361
# IPC-298 = tested on: IPC-298
# IST-MEL1 = tested on: IST-MEL1
# LB2518-MEL = tested on: LB2518-MEL
# LOXIMVI = tested on: LOXIMVI
# MEL-HO = tested on: MEL-HO
# MZ2-MEL = tested on: MZ2-MEL
# MeWo = tested on: MeWo
# RPMI7951 = tested on: RPMI7951
# RVH-421 = tested on: RVH-421
# SkMel28 = tested on: SkMel28
# SkMel2 = tested on: SkMel2
# SkMel30 = tested on: SkMel30
# SkMel5 = tested on: SkMel5
# UACC257 = tested on: UACC257
# UACC62 = tested on: UACC62
# WM115 = tested on: WM115
# WM1716 = tested on: WM1716
# WM1745 = tested on: WM1745
# WM3526 = tested on: WM3526
# 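Further: cells treated in 1,536-well plates, then fixed and DAPI-stained, with nuclei counted from automated high-throughput microscope images.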
Compound,cell count (G361) [%],cell count (IPC-298) [%],cell count (IST-MEL1) [%],cell count (LB2518-MEL) [%],cell count (LOXIMVI) [%],cell count (MEL-HO) [%],cell count (MZ2-MEL) [%],cell count (MeWo) [%],cell count (RPMI7951) [%],cell count (RVH-421) [%],cell count (SkMel28) [%],cell count (SkMel2) [%],cell count (SkMel30) [%],cell count (SkMel5) [%],cell count (UACC257) [%],cell count (UACC62) [%],cell count (WM115) [%],cell count (WM1716) [%],cell count (WM1745) [%],cell count (WM3526) [%]
"CN(NC(=O)CC(=O)NN(C)C(=S)c1ccccc1)C(=S)c1ccccc1 + O=C(O)C(=O)Nc1sc2c(c1C(=O)O)CCNC2 [TCS401] (first compound 0.03 µM, partner dose 8.33333 µM)",64.8,72,49.1,18.8,92.1,92.3,87,21.2,92.9,76.8,4.81,80.5,111,66.2,91.3,92.2,23.2,86.5,30.3,113
"CCCCCCCCc1ccc(CCC(N)(CO)CO)cc1 [fingolimod] + C=CCn1c(=O)c2cnc(Nc3ccc(N4CCN(C)CC4)cc3)nc2n1-c1cccc(C(C)(C)O)n1 [MK1775] (first compound 10 µM, partner dose 0.1 µM)",0.775,34.4,5.7,0.393,4.42,10.2,3.46,12.7,7.06,8.33,0.59,0.116,10.5,38.5,44,10.3,15.2,52.2,9.49,18.7
"NC(=O)c1ccc(N(C(N)=O)c2c(F)cccc2F)nc1-c1ccc(F)cc1F + C[C@]1(c2nc3c(C(N)=O)cccc3[nH]2)CCCN1 [Veliparib] (first compound 2 µM, partner dose 7 µM)",80.8,89.6,90.4,77.2,80.7,85.7,75.5,77.7,85.8,90.9,68.9,84.2,89.3,59.7,94.3,51.9,63.9,100,81,75.6
"Cc1ccc(NC(=O)c2cccc(N(C)C)c2)cc1NC(=O)c1ccc(O)cc1 + COc1cc(N2CCC(N3CCN(C)CC3)CC2)ccc1Nc1ncc(Cl)c(Nc2ccccc2S(=O)(=O)C(C)C)n1 [NVP-TAE684] (first compound 10 µM, partner dose 0.4 µM)",96.1,92,94,96.4,180,87.3,74.7,63.1,60.9,115,86.2,46.9,87.7,64.9,90.1,103,87.6,98.9,44,71.3
"CCCCCCCCc1ccc(CCC(N)(CO)CO)cc1 [fingolimod] + Nc1nc(F)nc2c1ncn2[C@@H]1O[C@H](CO)[C@@H](O)[C@@H]1O [fludarabine] (first compound 10 µM, partner dose 1 µM)",1.25,26.1,11.6,0.361,30.8,10.1,1.13,6.7,1.5,5.03,1.6,0.101,5.86,25,25.7,4.73,7.82,24,3.41,9.31
"CCc1ccc(CCOc2ccc(CC3SC(=O)NC3=O)cc2)nc1 (stereo not given) [pioglitazone] + COC(=O)c1sccc1S(=O)(=O)Nc1ccc(Nc2ccccc2)cc1OC [GSK0660] (first compound 10 µM, partner dose 5 µM)",109,98.5,98.5,164,112,91.5,99.2,97.4,73.6,100,78.1,110,110,106,96.6,119,97.4,96.1,97.9,98.2
"NC(=O)c1ccc(N(C(N)=O)c2c(F)cccc2F)nc1-c1ccc(F)cc1F + O=C(CCCCCCC(=O)Nc1ccccc1)NO [vorinostat] (first compound 2 µM, partner dose 0.4 µM)",59.4,78.8,98.3,80,78.7,89.7,115,80.7,79.9,12.2,42.6,66.8,101,63.3,73.5,69.5,87,97.1,69.7,80
"CC(C)(C)c1cnc(CSc2cnc(NC(=O)C3CCNCC3)s2)o1 + O=c1cc(-c2cccc3c2Sc2ccccc2S3)oc(N2CCOCC2)c1 [KU55933] (first compound 0.05 µM, partner dose 5 µM)",77.3,91.4,94.6,85.9,93.1,84.4,85.5,79.3,38,79.5,63.8,70.5,89.6,68.2,88.3,63,91,75.4,90.4,66.8
"COc1cc2c(Oc3ccc4[nH]c(C)cc4c3F)ncnc2cc1OCCCN1CCCC1 [cediranib] + O=C(Nc1ccccc1)c1cc([N+](=O)[O-])ccc1Cl [GW9662] (first compound 2 µM, partner dose 10 µM)",80.9,100,114,85.9,73.8,94.9,83.6,66.3,83.3,63,73.1,87.3,89,79.2,66.4,88.3,70.6,111,72,102
"NC(=O)c1ccc(N(C(N)=O)c2c(F)cccc2F)nc1-c1ccc(F)cc1F + CCCS(=O)(=O)Nc1ccc(F)c(C(=O)c2c[nH]c3ncc(Cl)cc23)c1F [PLX4720] (first compound 2 µM, partner dose 0.4 µM)",58.7,71.5,81.6,102,111,77.1,82.9,81.9,99.6,72.1,41.8,103,82.6,65.7,86.8,42.5,87.9,66.3,78.1,51.3
"COc1cc2c(Oc3ccc4[nH]c(C)cc4c3F)ncnc2cc1OCCCN1CCCC1 [cediranib] + O=C(O)C(=O)Nc1sc2c(c1C(=O)O)CCNC2 [TCS401] (first compound 2 µM, partner dose 8.33333 µM)",100,121,124,109,79.6,94.7,110,82.2,88.8,102,139,105,111,65.8,85.5,88.3,89,100,68.8,89.5
"Cc1ccc(NC(=O)c2cccc(N(C)C)c2)cc1NC(=O)c1ccc(O)cc1 + O=C(O)C(=O)Nc1sc2c(c1C(=O)O)CCNC2 [TCS401] (first compound 10 µM, partner dose 8.33333 µM)",112,98.4,126,130,140,88.2,113,84.2,93.7,170,96.8,104,121,79.5,103,96,87.4,102,65.8,71.9
"NC(=O)c1ccc(N(C(N)=O)c2c(F)cccc2F)nc1-c1ccc(F)cc1F + CC(C)C[C@H](NC(=O)[C@H](Cc1ccccc1)NC(=O)c1cnccn1)B(O)O [Bortezomib] (first compound 2 µM, partner dose 0.005 µM)",1.25,11.3,6.14,0.948,21.9,29.6,5.87,19.2,1.94,10.1,34.8,51.2,34.9,36.2,78.1,49.7,29.1,14.4,16,30.8
"CCCCCCCCc1ccc(CCC(N)(CO)CO)cc1 [fingolimod] + O=C(O)c1ccc(-c2c[nH]c3ncc(-c4ccccc4)cc23)cc1C1CCCC1 [GSK650394] (first compound 10 µM, partner dose 0.8 µM)",3.96,46.2,3.93,0.141,4.51,1.65,89,22.1,0.978,9.15,0.696,0.687,14.2,45.4,69.8,21.5,20.6,15.2,3.7,22
"NC(=O)c1ccc(N(C(N)=O)c2c(F)cccc2F)nc1-c1ccc(F)cc1F + O=C(Nc1cccc(Cl)c1)Nc1ncc(CCNc2ncnc3ccsc23)s1 [SNS314] (first compound 2 µM, partner dose 0.004 µM)",58.3,87.7,41.8,84.4,72.4,75.3,80.4,51.8,60.6,95.5,39.4,80,92.2,72.7,79.2,65.7,38.6,43.2,70.6,65.2
"COc1cc2c(Oc3ccc4[nH]c(C)cc4c3F)ncnc2cc1OCCCN1CCCC1 [cediranib] + COc1ccc(-c2ccc3c(N4CCOCC4)nc(N4C[C@@H](C)O[C@@H](C)C4)nc3n2)cc1CO [KU0063794] (first compound 2 µM, partner dose 0.1 µM)",93.4,81.7,111,94.9,89.8,95.9,84.4,76.4,88.8,59.7,76.7,78.8,63.9,53.8,92.7,81,90.1,81.7,91.5,64.9
"NC(=O)c1ccc(N(C(N)=O)c2c(F)cccc2F)nc1-c1ccc(F)cc1F + CNC(=O)c1cc(Oc2ccc(NC(=O)Nc3ccc(Cl)c(C(F)(F)F)c3)cc2)ccn1 [sorafenib] (first compound 2 µM, partner dose 2 µM)",90.9,95.5,101,73.9,149,93.6,108,94.6,90,75.6,85.5,90.3,96.2,95.4,91.9,68.1,92.5,98,84,87.1
"CCCCCCCCc1ccc(CCC(N)(CO)CO)cc1 [fingolimod] + C[C@@H]1CCN(C(=O)CC#N)C[C@@H]1N(C)c1ncnc2[nH]ccc12 [CP690550] (first compound 10 µM, partner dose 5 µM)",0.622,81.9,14.7,0.351,5.86,4.46,84.4,21.6,1.28,6.4,0.321,1.72,12.2,76,77,11.5,7.99,37.2,4.15,38.2
